The source of these data is the RNAGym collection of RNA variant scans (doi:10.7554/elife.90254).

The source gives no read counts; variants with many changes may rest on few reads.

B1: LINE1-full (parent)
chain: UACGUAGGUGGUUUUCCCCUGAUAGUGCUAAGGGGGCCUGGAAGUUUGGACUGGGCAGAGCUCAACACAGCGUGGCAAAGUGGCUGUGGCUAGACUGCCUCUCUGGAUUCCUCGUCACUCAGCAGGGCAUCUCUGAGAGAAAUGCC

Variants of B1 are the subject of this series. As to the kind of experiment: self-cleavage, relative activity (ratio to wild type); higher = more cleavage; in vitro, sequencing; the parent is a self-cleaving ribozyme.
For the variant UACGUAGGUGGCUUUCCCCUGAUAGUGCUAAGGGGGCCUGGAAGUUAGGACUGGGCAGAGCUCAACACAGCGUGGCAAAGUGGCUGUGGCUAGACUGCCUCUCUGGAUUCCUCGUCACUCAGCAGGGCAUCUCUGAGAGAGGUGCC [U12C U47A A141G A142G], the self-cleavage was found to be 0.
Turning to UACGUAGGUGGCUUUCCCCUGAUAGAGCUAAGGGGGCCUGGAAGUUUGGACUGGGCAGAGCUCAACACAGCGUGGCGAAGUGGCUGUGGCUAGACUGCCUCUCUGGAUUCCUCGUCACUCAGCAGGGCAUCUCUGAGAGAAAUGCC [U12C U26A A77G], the self-cleavage came to 1.36.
As for UACGUAGGUGGCUUUCCCCUGAUAGUGCUAAGGGGGCCCGGAAGUUUGGACUGGGCGGAGCUCAACACAGCGUGGCAAAGUGGCGGUGGCUAGACUGCCUCUCAGGAUUCCUCGUCACUCAGCAGGGCAUCUCUGAGAGAAAUGCC [U12C U39C A57G U85G U104A], the self-cleavage was 0.
Then UACGUAGGUGGCUUUCCCCUGAUAGUGCCAAGGGGGCCUGGAAGUUUGGACUGGGCAGAGCUCAACACAGCGUGGCAAAGUGGCUGUGGCUAGACAGCCUCUCUGGAUUCCUCGUCACUCAGCAGGGCAUCUCUGAGAGAAAUGCC [U12C U29C U96A], with 0.18; and UACGUAGGUGGCUUUCCCCUGAUAGUGCUAAGGGGGCCGGGAAGUUUGGACUGGGCAGAGCUCAACACAGCGAGGCAAAGUGGCUGUGGCUAGACUGCCUCUCUGGAUUCCUCGUCUCUCAGCAGGGCAUCUCUGAGAGAAAUGCC [U12C U39G U73A A117U], with 1.37; and UACGUAGGUGGCUUUCCCCUGAUAGUGCUAAGGGGGCCUGGAAGUCUGGACUGGGCAGAGCUCAACACAGCGUGGCAAAGUGGCUGUGGCUAGACUGCCUCUCUGGAUUCCUCGUCACUCAGCAGGGCAUCUCAGAGAGAAAUGCC [U12C U46C U134A], with 1.63.
Turning to UACGUAGGUGGCUUUCCCCUGAUAGGGCUAAGGGGGCCUGGAAGUUUGGACUGGGCUGAGCUCAACACAGCGUGGCAAAGUGGCUGUGGCUAGACUGCCUCUCUGGAUUCCUCGUCACUCAGCAGGGCAUCUCUGAGGGAAAUGCC [U12C U26G A57U A138G], the self-cleavage is 0.96.
Then UACGUAGGUGGCUUUCCCCUGAUAGUGCUAAGGGGGCCUGGAAGUCUGGACUGGGCAGAGCUCAACACAGCGUGGCAAAGUGGCUGUGGCUAGACUGCCUCACUGGAUUCCUCGUCACUCAGCAGGGCAUCUCUGAGAGAAAUGCC [U12C U46C U102A], with 2.2; and UACGUAGGUGGCUUUCCCCUGAUAGUGCUAAGGGGGCCAGGAUGUCUGGACUGGGCAGAGCUCAACACAGCGUGGCAAUGUGGCUGCGGCUAGACUGCCUCUCUGGAUUCCCCGUCACUCAGCAGGGCAUCUCUGAGAGAAAUGCC [U12C U39A A43U U46C A79U U87C U112C], with 0; and UACGUAGGUGGCUUUCCCCUGAUAGUGCAAAGGGGGCCUGGAAGUUUGGACUGGGCAGAGCUCAACACAGCGUGGCAAAGUGGCUGUGGCUAGACUGCCUCUCUGGAUUCCUCGUCACUCAGCAGGGCAUCUCUGAGAGAAACGCC [U12C U29A U143C], with 1.38.
As to UACGUAGGUGGCUUUCCCCAGAUAGUGCUAAGGGGGCCUGGAAGUUUGGACUGGGCAGAGCUCAACACAGCGUGGCAAAGUGGCUGUGGCUAGACUGCCUCUCUGGAUUCCUCGUCACUCAGCAGGGCACCACUGAGAGAAAUGCC [U12C U20A U130C U132A], the self-cleavage is 0.62.
Then UACGUAGGUGGCUUUCCCCUGAUAGUGCUAAGGGGGCCAGGAAGUUUGGACUGGGCAGAGCUCAACACAGCGUGGCAAAGUGGCUGUGGCUAGACUGCCUCUCUGGAUUCCUCGUCACUCAGCGGGGCAUCUCUGAGAGAAAUGCC [U12C U39A A124G], with 0.58.
Consider UACGUAGGUGGCUUUCCCCUGACAGUGCUAAGGGAGCCUGGAGGUUUGGACUGGGCAGAGCUCAACACAGCGUGGCAAAGUGGCUGUGGCUAGACUGCCUCUCUGGAUUCCUCGUCACUCAGCAGGGCAUCUCUGAGGGAAAUGCC [U12C U23C G35A A43G A138G], for which the self-cleavage worked out at 2.06.
Under UACGUAGGUGGCUUUCCCCUGAUAGUGCUAAGGGGGCCGGGGAGUUUGGACUGGGCGGAGCUCAACACAGCGUGGCAAAGUGGCUGUGGCUAGACUGCCUCUCUGGAUUCCUCGUCUCUCAGCAGGGCAUCUCUGAGGGAAAUGCC [U12C U39G A42G A57G A117U A138G] stands 0; under UACGUAGGUGGCUUUCCCCUGAUAGUGCUAAGGGGGCCUGGAAGCUUGGACUGGGCAGAGCUCAACACAGCGUGGCAAAGUGGCUGUGGCUAGACUGCCUCUCUGGAUACCUCGUCACUCAGCAGGGCAUCUCUGAGAGAAGUGCC [U12C U45C U109A A142G], 1.27.
Take UACGUAGGUGGCUUCCCCCUGAUAGUGCUAAGGGGGCCUGGAAGUUUGGACUGGGCAGAGCCCAACACAGCGUGGCAAAGUGGCUGAGGCUAGACUGCCUCUCUGGAAUCCUCGUCACUCAGCAGGGCAUCUCUGAGAGAAAUGCC [U12C U15C U62C U87A U108A]: the self-cleavage came to 0.
Under UACGUAGGUGGCUUUCCCCUGAUAGUGCUAAGGGGGCCGGGAAGUUUGGACUGGGCAGAGCCCAACACAGCGUGGCAAAGUGGCUGUGGCUAGACUGCCUCUCUGGAUUCCUCGUCACUCAGCAGGGCAUCUCUGAGAGAAGUGCC [U12C U39G U62C A142G] stands 0.06.
Then UACGUAGGUGGCUUUCCCCCGAUAGUGCUAAGGGGGCCUGGAAGUUUGGACUGGGCAGAGCUCAACGCAGCGUGGCAAAGUGGCUGUGGCUAGACUGCCUCUCUGGAUUCCUCGUCUCUCAGCAGGACAUCUCUGAGAGAAAUGCC [U12C U20C A67G A117U G127A], with 0.82.
Regarding UACGUAGGUGGCUUUCCCCUGACAGUGCUAAGGGGGCCUGGAAGUUUGGACUGGGCAGAGCUCAACACAGCGUGGCAAAGUGGCCGUGGCUAGACUGCCUCUCUGGAUUCCUCGUCACUCAGCAGGGCAUCUCUGAGAGAAAUGCC [U12C U23C U85C], the self-cleavage amounted to 0.8.
With UACGUAGGUGGCUUUCCCCUGAUAGCGCUAAGGGGGCCUGGAAGUUUGGACUGGGCAGAGCUCAACACAGCGUGGCAAAGUGGCUGUGGCUAGACUGCCUCUCUGGAUUCCUCGUCACUCAGCAGGGCAUCUCUGAGAGAGGUGCC [U12C U26C A141G A142G], the self-cleavage was found to be 1.15.
